Assay [1] addresses T1, full length hOAS1-p42 isoform fused to the GAL4-BD domain (pGBKT7) (human) (UniProt P00973).
T1 sequence: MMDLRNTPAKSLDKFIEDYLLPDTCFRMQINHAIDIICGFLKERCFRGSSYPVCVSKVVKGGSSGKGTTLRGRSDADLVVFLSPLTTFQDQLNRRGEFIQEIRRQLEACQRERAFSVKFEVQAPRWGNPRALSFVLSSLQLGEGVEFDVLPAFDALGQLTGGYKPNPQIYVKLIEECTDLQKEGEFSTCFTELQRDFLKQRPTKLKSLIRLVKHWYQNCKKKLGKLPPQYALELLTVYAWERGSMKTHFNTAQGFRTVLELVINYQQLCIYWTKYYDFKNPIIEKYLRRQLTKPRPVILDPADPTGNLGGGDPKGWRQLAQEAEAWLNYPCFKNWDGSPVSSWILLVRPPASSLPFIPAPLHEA
The assay can be described thus: two-hybrid; Matchmaker Gold library screen: GAL4-BD bait in Y2HGold mated at 30 °C for 24 h with Y187 holding a universal human cDNA library fused to GAL4-AD; selection on DDO, then TDO/A and QDO/A; inserts of colonies from QDO/A plates sequenced; about 2 x 10^6 clones screened.

Sequences of proteins named here, by UniProt entry; tags and fusion partners are left off. A line that says so, or that is headed by a name, gives the form on record, which may keep a tag or linker. Residues count along the entry.
Fibrillin 1 (FBN1) 225 aa prey peptide (aa 2647-2871), GAL4-AD fusion (P35555, residues 2647-2871): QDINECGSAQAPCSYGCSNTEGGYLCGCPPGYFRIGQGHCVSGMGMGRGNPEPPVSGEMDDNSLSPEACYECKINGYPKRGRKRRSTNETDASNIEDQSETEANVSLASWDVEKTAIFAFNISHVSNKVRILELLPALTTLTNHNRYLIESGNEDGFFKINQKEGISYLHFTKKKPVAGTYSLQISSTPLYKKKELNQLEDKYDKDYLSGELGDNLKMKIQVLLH
HA-tagged FBN1 (188 aa) peptide, in vitro translated (P35555, residues 2684-2871): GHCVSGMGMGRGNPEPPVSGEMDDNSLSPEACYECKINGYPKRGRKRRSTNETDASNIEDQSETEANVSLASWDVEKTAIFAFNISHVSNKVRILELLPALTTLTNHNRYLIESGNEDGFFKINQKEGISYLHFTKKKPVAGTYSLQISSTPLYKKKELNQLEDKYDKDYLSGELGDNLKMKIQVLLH

For assay [2], the target named is T2, c-myc-tagged full-length hOAS1 p42, in vitro translated (human) (UniProt P00973).
T2 sequence (chain, [^35S]-methionine (radiolabel)): T1 sequence
The experiment in a line: co-IP; c-myc-tagged bait and HA-tagged prey peptide translated in vitro (wheat germ extract, [35S]-methionine), incubated together 1 h at room temperature, precipitated overnight at 4 °C with anti-c-myc or anti-HA agarose beads; non-specific IgG beads as control; SDS-PAGE and autoradiography.

Assay [3] addresses HA-tagged FBN1 (188 aa) peptide, in vitro translated (human) (UniProt P35555). Described as above.

These are yes or no findings as the source states them, for the method shown. For some assays here: Binding seen in cells or lysates may run through a third protein. Some binding calls cover weakened binding; strength is not graded here. Sequences can lack the tags named with a protein.

Data on five molecules can be found in article PMC7077331.

As to “Fibrillin 1 (FBN1) 188 aa prey peptide (aa 2684-2871), GAL4-AD fusion (from UniProt P35555 2684-2871) (domain or fragment)”, in assay [1], the binding result was “binds”. The same measure, in the same setting: for “Fibrillin 1 (FBN1) 225 aa prey peptide (aa 2647-2871), GAL4-AD fusion (from UniProt P35555 2647-2871) (domain or fragment)” the value was “binds”. As for “HA-tagged FBN1 (188 aa) peptide, in vitro translated (from UniProt P35555 2684-2871) (domain or fragment)”, the binding entry in assay [2] is recorded as “binds”.

B1: c-myc-tagged full-length hOAS1 p44, in vitro translated (protein, UniProt P00973-4 1-360)
chain: MMDLRNTPAKSLDKFIEDYLLPDTCFRMQINHAIDIICGFLKERCFRGSSYPVCVSKVVKGGSSGKGTTLRGRSDADLVVFLSPLTTFQDQLNRRGEFIQEIRRQLEACQRERAFSVKFEVQAPRWGNPRALSFVLSSLQLGEGVEFDVLPAFDALGQLTGGYKPNPQIYVKLIEECTDLQKEGEFSTCFTELQRDFLKQRPTKLKSLIRLVKHWYQNCKKKLGKLPPQYALELLTVYAWERGSMKTHFNTAQGFRTVLELVINYQQLCIYWTKYYDFKNPIIEKYLRRQLTKPRPVILDPADPTGNLGGGDPKGWRQLAQEAEAWLNYPCFKNWDGSPVSSWILLVNLTLVGRRNYTNN
modifications: [^35S]-methionine (radiolabel)
Regarding B1, the binding result in assay [3] is “no binding”.

B2: c-myc-tagged full-length hOAS1 p42, in vitro translated (protein, UniProt P00973-2 1-364)
chain: T1 sequence
modifications: [^35S]-methionine (radiolabel)
On to B2, for which the binding result in assay [3] was “binds”.
